Tested on: M. tuberculosis strain Erdman
Conditions: mouse, in vivo

In the case of `Nc1nc2c(ncn2[C@@H]2O[C@@H]3COP(=O)(S)O[C@H]4[C@@H](O)[C@H](n5cnc6c(N)ncnc65)O[C@@H]4CO[P@@](=O)(S)O[C@@H]2[C@@H]3O)c(=O)[nH]1` (some centres unmarked) [ML-RR-cGAMP, dithio-[RP, RP]-cyclic-[G(2′,5′)pA(3′,5′)p]], the “additional protection afforded by intranasal administration” value was “reduced” and the “dependence of protection on IL-17” value (sc) was “independent of IL-17”.
